Patent US20210107981A1 (SUTRO BIOPHARMA, published 2021)

Legend:
[1] = target: T1, murine PD-1 (R&D Systems Inc., Catalog No. 1021-PD-100) (murine, UniProt Q02242 25-167); assay: SPR (Biacore), murine PD-1 as analyte
T1 construct: also called mouse PD-1
T1 sequence: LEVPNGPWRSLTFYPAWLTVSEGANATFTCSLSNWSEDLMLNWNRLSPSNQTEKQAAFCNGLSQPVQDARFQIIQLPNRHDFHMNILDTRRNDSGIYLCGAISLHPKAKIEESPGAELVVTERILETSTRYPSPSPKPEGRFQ

[2] = target: T2, Human PD-1 (ACROBiosystems, Inc., Catalog No. PD1-H5221) (human, UniProt Q15116 fragment); assay: SPR (Biacore), antibody captured on anti-FLAG, PD-1 as analyte
T2 construct: Bought recombinant protein; also called huPD1-His; PD-1-his; not shown: His tag of the bought protein (huPD1-His)
Protocol: Monoclonal anti-FLAG M2 IgG (Sigma-Aldrich #F9291) was immobilized onto a CMS chip (GE Life Sciences) using amine coupling chemistry (from Amine Coupling Kit, GE Life Sciences). The immobilization steps were carried out at a flow rate of 25 μl/min in 1×HBS-EP+ buffer (GE Life Sciences; 10× Stock diluted before use). The sensor surfaces were activated for 7 min with a mixture of NHS (0.05 M) and EDC (0.2 M). The Anti-FLAG M2 IgG was injected over all 4 flow cells at a concentration of 25 μg/ml in 10 mM sodium acetate, pH 4.5, for 7 min. Ethanolamine (1 M, pH 8.5) was injected for 7 min to block any remaining activated groups.
Off-rate and kinetic binding experiments were performed at 25° C. using 1×HBS-EP+ buffer. Test and control antibodies were injected over the Anti-FLAG surface at concentrations of 5-10 μg/mL for 12 seconds at a flow rate of 10 μl/min on flow cells 2, 3 and 4, followed by a buffer wash for 30 seconds at the same flow rate. Kinetic characterization of antibody samples was carried out with a single concentration of antigen (for off-rate ranking) or a 1:2 dilution series of antigen (for kinetic characterization) and 1 injection of 0 nM antigen (i.e., buffer alone). After capturing ligand (anti-PD-1 antibody) on the anti-FLAG surface, the analyte (huPD1-His) was bound at 50, 25, 12.5, 6.25 and 0 nM for 180 seconds, followed by a 600 second dissociation phase at a flow rate of 50 μl/min. Between each ligand capture and analyte binding cycle, regeneration was carried out using 2 injections of 10 mM glycine pH 2.0 for 30 seconds at 30 μL/min, followed by a 30 second buffer wash step.
The data was fit with the Biacore T200 Evaluation software, using a 1:1 Langmuir binding model. KD (affinity, nM) was determined as a ratio of the kinetic rate constants calculated from the fits of the association and dissociation phases.

[3] = target: T3, human PD-1 expressed on the cell surface (CHO-PD1 cells) (human, UniProt Q15116 25-288); assay: FACS cell binding on CHO cells expressing human PD-1
T3 construct: Also used here as the target for native PD-1 on human PBMC / T cells in the functional (IFN-g) assays; also called CHO cell line overexpressing human PD-1; Cell-Surface Human PD-1 antigen
Protocol: Antibodies with expression levels >250 nM and mouse IgGs from hybridomas were tested in a fluorescence-activated cell sorting (FACS) cell-binding assay. Chinese Hamster Ovary (or CHO) Cells stably expressing the human target molecule PD-1 on the cell surface (CHO-PD1) were used to screen for binding. Parental CHO cells were used as a negative control to determine background-binding levels. Parental CHO cells and CHO-PD1 cells were cultured in RPMI w/10% FCS penicillin/streptomycin (Pen/Strep) and glutamine (or Gln) and split every 3-4 days at 10⁵ cells/mL.
A mix of parental CHO cells and CHO-PD1 cells was prepared as follows: Parental CHO cells were washed 2× in PBS then incubated in PBS containing 1 μM CellTrace™ Oregon Green488® (Life Technologies) at 37° C. for 30 minutes. Cells were then washed 2× with RPMI w/10% fetal calf serum (FCS), washed 2× with FACS buffer (PBS w/2% FCS), suspended thoroughly in ice-cold FACS buffer at a final concentration of 2×10⁶ cells/mL and kept on ice. CHO-PD1 cells were similarly washed with FACS buffer and kept on ice at 2×10⁶ cells/mL. Parental CHO cells and CHO-PD1 cells were then mixed to obtain a 1:1 cell suspension and seeded at 100 μL per well on 96 well polypropylene plates. Plates were spun at 1500 rpm for 5 minutes and cell pellets were suspended in 50 μL FACS buffer containing 6-12 point dilutions of anti-PD-1 variants starting from concentrations of −100-200 nM antibody, dispensed using BioMek FX (Beckman Coulter). Cells were then incubated on ice for 1 hr, washed with FACS buffer and incubated for 1 hr on ice with 50 μL FACS buffer containing 2.5 μg/ml R-phycoerythrin-conjugated goat anti-Human IgG (Jackson ImmunoResearch) or AF647-conjugated goat anti-mouse IgG (Life Technologies) dispensed using BioMek FX (Beckman Coulter). Cells were then washed 2× with FACS buffer and fixed for 10 minutes in 200 μL PBS with 2% paraformaldehyde (PFA) prior to fluorescence detection. Samples were acquired using a Becton Dickinson LSRII FACS. Mean Fluorescence Intensity of PD-1 antibody binding was analyzed using FlowJo® software (Tree Star, Inc.).

[4] = target: T4, cynomolgus PD-1 (ACROBiosystems, Inc., Catalog No. PD1-H5254) (cynomolgus, UniProt B0LAJ3 25-167); assay: SPR (Biacore), cynomolgus PD-1 as analyte
T4 construct: also called cyno PD-1
T4 sequence (B0LAJ3 entry or part of it limits assumed, form in doubt): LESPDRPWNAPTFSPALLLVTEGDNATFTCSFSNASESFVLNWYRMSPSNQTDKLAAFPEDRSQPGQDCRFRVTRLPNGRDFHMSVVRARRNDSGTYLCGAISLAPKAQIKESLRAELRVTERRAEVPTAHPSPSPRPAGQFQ

B1: 1353-H09 scFv-Fc (scFv)
scFv: MEVQLVQSGAEVKKPGASVKVSCKASGYRFPHYGISWVRQAPGQGLEWMGWISAYNGNTNYAQKLQGRVTMTTDTSTNTAYMELRSLRSDDTAVYYCARDAEYGSGSGYWGQGTLVTVSSGGGGSGGGGSGGGGSSYELTQPPSVSVSPGQTARITCSGDALPKQYAYWYQQKPGQAPVMVIYKDTERPSGIPERFSGSSSGTKVTLTISGVQAEDEADYYCQSADNSITYRVFGGGTKVTVLAAGSDQEPKKLAAGSDQ[human IgG1 Fc with changes left out here]GSGDYKDDDDKGSGHHHHHH
notes: scFv-Fc with IgG1 Fc and FlagHis tag; the entry is the whole chain
B1 gave a Kd [1] of 9.08 nM.

B2: 1353-A09 scFv-Fc (scFv)
scFv: MEVQLVQSGAEVKKPGASVKVSCKASGYRFTWYGISWVRQAPGQGLEWMGWISAYNGNTNYAQKLQGRVTMTTDTSTNTAYMELRSLRSDDTAVYYCARDSEYSSGSGYWGQGTLVTVSSGGGGSGGGGSGGGGSSYELTQPPSVSVSPGQTARITCSGDALTTQYAYWYQQKPGQAPVMVIYKDTERPSGIPERFSGSSSGTKVTLTISGVQAEDEADYYCQSADNSITYRVFGGGTKVTVLAAGSDQEPKKLAAGSDQ[human IgG1 Fc with changes left out here]GSGDYKDDDDKGSGHHHHHH
notes: scFv-Fc (VH1-18/Vlambda3-25) with IgG1 Fc and FlagHis tag; the entry is the whole chain
B2 was tested, and the Kd [2] was 25.5 nM, the koff [2] was 0.0124 s⁻¹ and the kon [2] was 488000 M⁻¹ s⁻¹. It also gave a Kd [3] of 0.2 nM.

B3: 1353-C07 scFv-Fc (scFv)
scFv: MEVQLVQSGAEVKKPGASVKVSCKASGYRFSTFGISWVRQAPGQGLEWMGWISAYNGNTNYAQKLQGRVTMTTDTSTNTAYMELRSLRSDDTAVYYCARDVDYSSGSGYWGQGTLVTVSSGGGGSGGGGSGGGGSSYELTQPPSVSVSPGQTARITCSGDALSEQYAYWYQQKPGQAPVMVIYKDTERPSGIPERFSGSSSGTKVTLTISGVQAEDEADYYCQSADNSITYRVFGGGTKVTVLAAGSDQEPKKLAAGSDQ[human IgG1 Fc with changes left out here]GSGDYKDDDDKGSGHHHHHH
notes: as for B1
B3 was tested, and the Kd [2] was 15.2 nM, the koff [2] was 0.0187 s⁻¹ and the kon [2] was 1.23e+06 M⁻¹ s⁻¹. The Kd [3] was 0.4 nM.

B4: 1353-E07 scFv-Fc (scFv)
scFv: MEVQLVQSGAEVKKPGASVKVSCKASGYRFETYGISWVRQAPGQGLEWMGWISAYNGNTNYAQKLQGRVTMTTDTSTNTAYMELRSLRSDDTAVYYCARDAEYSLGSGYWGQGTLVTVSSGGGGSGGGGSGGGGSSYELTQPPSVSVSPGQTARITCSGDALPKQYAYWYQQKPGQAPVMVIYKDTERPSGIPERFSGSSSGTKVTLTISGVQAEDEADYYCQSADNSITYRVFGGGTKVTVLAAGSDQEPKKLAAGSDQ[human IgG1 Fc with changes left out here]GSGDYKDDDDKGSGHHHHHH
notes: as for B1
B4 showed a Kd [2] of 9.52 nM, a koff [2] of 0.00701 s⁻¹ and a kon [2] of 737000 M⁻¹ s⁻¹. For the same binder, the Kd [3] was 0.9 nM.

B5: 1353-F09 scFv-Fc (scFv)
scFv: MEVQLVQSGAEVKKPGASVKVSCKASGYRFRQYGISWVRQAPGQGLEWMGWISAYNGNTNYAQKLQGRVTMTTDTSTNTAYMELRSLRSDDTAVYYCARDAEYGSGSGYWGQGTLVTVSSGGGGSGGGGSGGGGSSYELTQPPSVSVSPGQTARITCSGDALPKQYAYWYQQKPGQAPVMVLYKDTERPSGIPERFSGSSSGTKVTLTISGVQAEDEADYYCQSADNSITYRVFGGGTKVTVLAAGSDQEPKKLAAGSDQ[human IgG1 Fc with changes left out here]GSGDYKDDDDKGSGHHHHHH
notes: as for B1
B5 gave a Kd [2] of 10.9 nM, a kon [2] of 687000 M⁻¹ s⁻¹ and a Kd [3] of 1 nM.

B6: 1353-G08 scFv-Fc (scFv)
scFv: MEVQLVQSGAEVKKPGASVKVSCKASGYRFTRYGISWVRQAPGQGLEWMGWVSAHNGNTNYAQKLQGRVTMTTDTSTNTAYMELRSLRSDDTAVYYCARDADYGSGSGYWGQGTLVTVSSGGGVSGGGGSGGGGSSYELTQPPSVSVSPGQTARITCSGDALPMQYGYWYQQKPGQAPVMVIYKDTERPSGIPERFSGSSSGTKVTLTISGVQAEDEADYYCQSADNSITYRVFGGGTKVTVLAAGSDQEPKKLAAGSDQ[human IgG1 Fc with changes left out here]GSGDYKDDDDKGSGHHHHHH
notes: scFv-Fc with IgG1 Fc and FlagHis tag; the entry is the whole chain; also called anti-PD-1 human scFv-Fc, clone 1353-G08
B6 was tested, and the Kd [4] was 24.3 nM, the Kd [1] was 60.9 nM and the Kd [2] was 4.5 nM. For the same binder, the koff [2] was 0.00254 s⁻¹, the kon [2] was 563000 M⁻¹ s⁻¹ and the Kd [3] was 0.3 nM.

B7: 1353-G10 scFv-Fc (scFv)
scFv: MEVQLVQSGAEVKKPGASVKVSCKASGYRFPHYGISWVRQAPGQGLEWMGWISAYNGNTNYAQKLQGRVTMTTDTSTNTAYMELRSLRSDDTAVYYCARDVDYGTGSGYWGQGTLVTVSSGGGGSGGGGSGGGGSSYELTQPPSVSVSPGQTARITCSGDALPKQYAYWYQQKPGQAPVMVIYKDTERPSGIPERFSGSSSGTKVTLTISGVQAEDEADYYCQSADNSITYRVFGGGTKVTVLAAGSDQEPKKLAAGSDQ[human IgG1 Fc with changes left out here]GSGDYKDDDDKGSGHHHHHH
notes: scFv-Fc with IgG1 Fc and FlagHis tag; the entry is the whole chain; also called anti-PD-1 human scFv-Fc, clone 1353-G10
With B7 the Kd [4] was 15.5 nM, the Kd [1] was 62.2 nM and the Kd [2] was 1.9 nM. For the same binder, the koff [2] was 0.00098 s⁻¹, the kon [2] was 516000 M⁻¹ s⁻¹ and the Kd [3] was 0.7 nM.

B8: 1353-H08 scFv-Fc (scFv)
scFv: MEVQLVQSGAEVKKPGASVKVSCKASGYRFTRQGISWVRQAPGQGLEWMGWISAYNGNTKYAQKLQGRVTMTTDTSTNTAYMELRSLRSDDTAVYYCARDVDYGSGSGYWGQGTLVTVSSGGGGSGGGGSGGGGSSYELTQPPSVSVSPGQTARITCSGDALPKQYAYWYQQKPGQAPVMVIYKDTERPSGIPERFSGSSSGTKVTLTISGVQAEDEADYYCQSADNSITYRVFGGGTKVTVLAAGSDQEPKKLAAGSDQ[human IgG1 Fc with changes left out here]GSGDYKDDDDKGSGHHHHHH
notes: as for B1
In the case of B8, the Kd [2] is reported as 4.76 nM, the koff [2] is reported as 0.00118 s⁻¹ and the kon [2] is reported as 248000 M⁻¹ s⁻¹. The Kd [3] was 0.2 nM.
